{"source": "PubChem BioAssay AID686979", "about": "(National Center for Advancing Translational Sciences (NCATS), 2013)", "note": "Values joined by “and” are separate entries in the source; they are usually repeats but may differ in a detail not shown here. Equal entries are not always repeated. Among all 420,000 compounds or so, about 50,000 (12%) were called active. The shares of active, inactive and inconclusive entries below differ from those in the screen. Calls follow the shape of the dose curve; as a rule, active = well fitted inhibition curve with a large enough effect; inconclusive = small, poorly fitted or top-dose-only effect; inactive = flat fitted curve, though single readings scatter. A potency beside an inconclusive call is a rough fit, not a confirmed value. % is scaled to controls: 0 for no effect and ±100 for the full control effect; potency is read from the fitted curve at half-maximal effect; tags tell the direction and shape of the fitted curve.", "data": [{"test": "qHTS for Inhibitors of human tyrosyl-DNA phosphodiesterase 1 (TDP1): qHTS in cells in presence of CPT; also: nearly all actives have a fitted effect of over 55% in size", "conditions": "chicken DT40 Tdp1-/-;hTDP1 cells + 20 nM CPT, ATP luminescence, 48 h; activity change, negative = growth inhibition: at 46.2 µM (top of the series) unless noted", "summary_of_the_method": "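Chicken DT40 Tdp1-/- cells stably complemented with human TDP1 were seeded at 400 cells/well in medium containing 20 nM camptothecin, exposed to pin-transferred compounds, and grown at 37 °C for at least 48 hr. Viability was read as ATP luminescence.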", "values": [{"molecule": "N#Cc1cccc(C(=O)C(=O)N2CCCN(Cc3ccc(F)cc3)CC2)c1", "activity change, negative = growth inhibition": "inactive: -11.4%"}, {"molecule": "CC(=O)C1=CCC(c2cccs2)N(S(=O)(=O)c2ccc(C)cc2)C1", "note": "(configuration not stated)", "Potency": "inconclusive: 25.9 µM [inhibitor, single point]"}, {"molecule": "COc1ccccc1CNC(=O)c1c(-c2ccccc2)nn(-c2ccccc2)c1C", "Potency": "inconclusive: 25.9 µM [inhibitor, single point]"}, {"molecule": "CC1(C)CC(=O)C2=C(C1)Nc1cc(Cl)ccc1S2", "Potency": "inconclusive: 16.4 µM [inhibitor, partial curve, poor fit]"}, {"molecule": "Cc1ccc(NC(=O)Nc2cccnc2)cc1", "activity change, negative = growth inhibition": "inactive: 4.49%"}, {"molecule": "CCCCn1c(SCC(=O)NCc2ccco2)nc2ccc(N3CCOCC3)cc2c1=O", "Potency": "inconclusive: 23.1 µM [inhibitor, single point]"}, {"molecule": "COc1cc(O)c2c(c1)C(=O)c1cc(C)cc(O)c1C2=O", "activity change, negative = growth inhibition": "inactive: -0.396%"}, {"molecule": "Cc1cc([N+](=O)[O-])ccc1NC(=O)CCC(=O)N1CCCCC1", "activity change, negative = growth inhibition": "inactive: -4.91%"}, {"molecule": "CC(C#N)OC(=O)c1cccnc1SCC(=O)Nc1ccc2c(c1)OCO2", "note": "(configuration not stated)", "activity change, negative = growth inhibition": "inactive: 14.5%"}, {"molecule": "CC1CCN(S(=O)(=O)N2CCC(C(=O)N3CCC(N(C)CC4CCCO4)CC3)CC2)CC1", "note": "(configuration not stated)", "activity change, negative = growth inhibition": "inactive: 0.808%"}, {"molecule": "O=C(Nc1ccccc1Cl)c1ccccc1Oc1ccc(C(F)(F)F)cc1[N+](=O)[O-]", "Potency": "active: 23.1 µM"}, {"molecule": "CCOC(=O)C1CCN(S(=O)(=O)c2ccc(NC(=O)c3ccco3)cc2)CC1", "activity change, negative = growth inhibition": "inactive: 5.57%"}, {"molecule": "Cc1c(Cl)cccc1NC(=O)CN1C(=O)COc2ccc(S(=O)(=O)N3CCCCCC3)cc21", "Potency": "active: 16.4 µM"}, {"molecule": "Cc1coc2c(C)c3oc(=O)c(CC(=O)NCc4ccccc4)c(C)c3cc12", "Potency": "active: 5.8 µM"}, {"molecule": "CCOc1ccccc1NC(=O)c1sc2nc(C)cc(C)c2c1N", "Potency": "inconclusive: 29.1 µM [inhibitor, single point]"}, {"molecule": "O=C(NCc1nc2ccccc2[nH]1)c1ccco1", "activity change, negative = growth inhibition": "inactive: 1.68%"}, {"molecule": "O=C(N/N=C/c1ccncc1)c1cccc(N/N=C/c2ccncc2)c1", "Potency": "inconclusive: 29.1 µM [inhibitor, single point]"}, {"molecule": "CCCCn1c(N)c(N(CC(C)C)C(=O)c2cccc(-n3cnnn3)c2)c(=O)[nH]c1=O", "activity change, negative = growth inhibition": "inactive: 1.96%"}, {"molecule": "O=C(NNC(=O)c1cc2cc(Br)ccc2oc1=O)c1ccc(O)cc1O", "Potency": "active: 5.17 µM"}, {"molecule": "O=C(C1=C[C@H](C2CCCCC2)C[C@H](OCc2ccc(CO)cc2)O1)N1CCN(Cc2ccccc2)CC1", "Potency": "active: 18.4 µM"}, {"molecule": "CCOC(=O)C1CCN(S(=O)(=O)c2cc(Br)cc3c2N(C(=O)C2CC2)CC3)CC1", "activity change, negative = growth inhibition": "inconclusive: -34.4% [inhibitor]"}, {"molecule": "CCc1ccc(NC(=O)c2ccc(F)c(S(=O)(=O)NC3CCCCCC3)c2)cc1", "Potency": "inconclusive: 25.9 µM [inhibitor, single point]"}, {"molecule": "O=S(=O)(N/N=C/c1cccc(OC2CSC2)c1)c1ccccc1", "Potency": "active: 16.4 µM"}, {"molecule": "O=C(NCc1ccco1)c1cccc(-c2cncc3nccn23)c1", "Potency": "inconclusive: 23.1 µM [inhibitor, single point]"}, {"molecule": "O=C(COC(=O)Cc1ccc(Br)cc1)NC1CC1", "activity change, negative = growth inhibition": "inactive: 3.98%"}, {"molecule": "CN(C)Cc1csc(Nc2ccc(C(=O)c3ccccc3)cc2)n1", "Potency": "active: 18.4 µM"}, {"molecule": "Cc1[nH]n(S(=O)(=O)c2ccccc2)c(=O)c1N=Nc1cccc(Cl)c1", "activity change, negative = growth inhibition": "inactive: 3.41%"}, {"molecule": "Cc1ccc(C)c(N2CCN(C(=O)Nc3ccc4c(c3)N(C)C(=O)CS4)CC2)c1", "Potency": "active: 20.6 µM"}, {"molecule": "Cc1cccc(C)c1NC(=O)c1nc(S(C)(=O)=O)ncc1N(Cc1ccc(F)cc1)Cc1ccco1", "Potency": "inconclusive: 29.1 µM [inhibitor, single point]"}, {"molecule": "CCOC(=O)c1cc(C(=O)OCC)c(=O)[nH]c1N1CCCC1", "activity change, negative = growth inhibition": "inactive: -29%"}, {"molecule": "COc1ccc(CNC(=O)Cn2c(=O)oc3cc(S(=O)(=O)N4CCC(C)CC4)ccc32)cc1", "Potency": "active: 8.2 µM"}, {"molecule": "Cc1ccc(C)c(S(=O)(=O)N2CCCCC2CCNC(=O)C(=O)NCc2cccnc2)c1", "note": "(configuration not stated)", "Potency": "inconclusive: 20.6 µM [inhibitor, single point]"}, {"molecule": "C=CCn1c(C)cc(C(=O)COC(=O)/C=C/c2ccc(OC)cc2)c1C", "Potency": "inconclusive: 18.4 µM [inhibitor, single point]"}, {"molecule": "Cc1ccc(Cl)cc1-n1c(=O)c2sc3ccccc3c2n(CC(=O)NC2CCCCC2)c1=O", "Potency": "inconclusive: 16.4 µM [inhibitor, single point]"}, {"molecule": "Cc1ccc(C)c(C(=O)COc2ccc(C)nc2[N+](=O)[O-])c1", "Potency": "active: 7.31 µM"}, {"molecule": "CCC1COCCS(=O)(=O)N1Cc1cccc(C(F)(F)F)c1", "note": "(configuration not stated)", "Potency": "inconclusive: 10 µM [inhibitor, partial curve, poor fit] and inconclusive: 29.1 µM [inhibitor, single point]"}, {"molecule": "COc1ccc(CCNC(=O)c2ccc(N3CCCC3=O)cc2)cc1OC", "activity change, negative = growth inhibition": "inconclusive: -25.2% [inhibitor]"}, {"molecule": "CCOC(=O)c1cnc2c(C)cc(C)cc2c1NCCc1ccc(OC)c(OC)c1", "Potency": "active: 20.6 µM"}, {"molecule": "O/N=C(\\Cn1ccnc1)c1ccccc1", "activity change, negative = growth inhibition": "inactive: 2.83%"}, {"molecule": "CC(C)Cn1c(SCC(=O)N2CCCCC2)nc2ccccc2c1=O", "Potency": "inconclusive: 29.1 µM [inhibitor, single point]"}, {"molecule": "Cc1ccc(C(=O)C(OC(=O)c2c(C)cc(=O)oc2C)c2ccccc2)cc1", "note": "(configuration not stated)", "Potency": "inconclusive: 16.4 µM [inhibitor, single point]"}, {"molecule": "COc1ccc(N2C(=O)NC(NC(=O)C(C)(C)C)(C(F)(F)F)C2=O)cc1", "note": "(configuration not stated)", "activity change, negative = growth inhibition": "inactive: 2.41%"}, {"molecule": "CCOC(=O)C1OC1(c1ccccc1)c1ccccc1", "note": "(configuration not stated)", "Potency": "inconclusive: 32.6 µM [inhibitor, single point]"}, {"molecule": "CCOc1ccc(C(=O)Nc2cccc(-n3cnnn3)c2)cc1OCC", "Potency": "inconclusive: 25.9 µM [inhibitor, single point]"}, {"molecule": "COc1ccc(NC(=O)CN(C)C(=O)CN2C(=O)NC3(CCCC3)C2=O)cc1", "activity change, negative = growth inhibition": "inactive: -18.9%"}, {"molecule": "Cc1ccc2c(CC(=O)NCc3ccccc3)coc2c1C", "Potency": "active: 4.11 µM"}, {"molecule": "Cn1cnc([N+](=O)[O-])c1Sc1ncccc1N", "activity change, negative = growth inhibition": "inactive: -35.4%"}, {"molecule": "CCOC(CNC(=O)c1ccc2c(c1)ncn2-c1ccccc1OC)OCC", "activity change, negative = growth inhibition": "inactive: 3.91%"}, {"molecule": "Cn1ccnc1C(OC(=O)c1ccccc1)C(F)(F)F", "note": "(configuration not stated)", "Potency": "inconclusive: 11.6 µM [inhibitor, partial curve]"}, {"molecule": "O=c1c2ccccc2nnn1CSc1ncnc2ccccc12", "Potency": "inconclusive: 29.1 µM [inhibitor, single point]"}, {"molecule": "Cc1ccc(NC(=O)c2cccnc2C(=O)O)nc1", "activity change, negative = growth inhibition": "inactive: -22.8%"}, {"molecule": "CC1(C(=O)NS(=O)(=O)c2cccc(C#N)c2)CCN1C(=O)C1(c2ccc(Cl)cc2)CCC1", "note": "(configuration not stated)", "activity change, negative = growth inhibition": "inactive: 7.69%"}, {"molecule": "O=C(O)c1ccccc1OC(=O)C12CC3CC(CC(C3)C1)C2", "activity change, negative = growth inhibition": "inactive: 10.9%"}, {"molecule": "O=C(NC(=S)NCCc1ccccn1)c1ccco1", "Potency": "inconclusive: 13 µM [inhibitor, partial curve]"}, {"molecule": "COc1ccc(C(=O)N(Cc2ccc(N(C)C)cc2)Cc2ccco2)cc1Cl", "Potency": "active: 16.4 µM"}, {"molecule": "COCCNCCOCCOc1ccc(Cl)c(C)c1", "Potency": "inconclusive: 23.1 µM [inhibitor, partial curve, poor fit]"}, {"molecule": "O=C(NCc1cccnc1)c1cc(Sc2ccc(F)cc2F)nc2ccccc12", "Potency": "active: 23.1 µM"}, {"molecule": "Cc1ccccc1-c1cncnc1NCc1ccccc1", "activity change, negative = growth inhibition": "inactive: -7.12%"}, {"molecule": "COc1ccccc1C(=O)Nc1ccc(NC(=O)c2ccco2)cn1", "Potency": "inconclusive: 29.1 µM [inhibitor, single point]"}, {"molecule": "CCOc1cccc(/C=N/N2C(=O)CSC2=S)c1O", "Potency": "inconclusive: 18.4 µM [inhibitor, single point]"}, {"molecule": "Cc1cc(-c2ccc(C)c(S(=O)(=O)Nc3ccccc3C(F)(F)F)c2)on1", "Potency": "inconclusive: 14.6 µM [inhibitor, single point]"}, {"molecule": "O=C(NC(=S)NCc1ccccc1)c1cccc([N+](=O)[O-])c1", "Potency": "inconclusive: 29.1 µM [inhibitor, single point]"}, {"molecule": "O=Cc1cn(-c2ccccc2)nc1-c1ccc(F)cc1", "Potency": "inconclusive: 18.4 µM [inhibitor, single point]"}, {"molecule": "Cc1ccc(C)n1-c1c(C(=O)NCC(C)c2ccccc2)sc2ncccc12", "note": "(configuration not stated)", "Potency": "active: 20.6 µM"}, {"molecule": "COc1c(Cl)c(=O)oc2ccc(Cl)cc12", "activity change, negative = growth inhibition": "inactive: -14.2%"}, {"molecule": "COc1ccc(C/C(C)=N/NC(=S)Nc2ccccc2F)cc1", "Potency": "inconclusive: 16.4 µM [inhibitor, single point]"}, {"molecule": "O=C(CCCCCN1C(=O)c2ccccc2C1=O)NCc1ccccn1", "activity change, negative = growth inhibition": "inactive: 12.2%"}, {"molecule": "Cc1ccc(S(=O)(=O)NC23CC4CC(CC(C4)C2)C3)cc1", "Potency": "inconclusive: 29.1 µM [inhibitor, single point]"}, {"molecule": "COC(=O)[C@@]12C[C@@H](CC(=O)NCCCN3CCCC3=O)C(=O)N(Cc3ccc4c(c3)OCO4)C1=CCC(C)(C)C2", "Potency": "inconclusive: 20.6 µM [inhibitor, single point]"}, {"molecule": "C[C@@H](Cc1ccccc1)Nc1ncnc2c1ncn2[C@@H]1O[C@H](CO)[C@@H](O)[C@H]1O", "activity change, negative = growth inhibition": "inactive: 4.06%"}, {"molecule": "CCNC(=S)N(CCc1c(C)[nH]c2ccc(F)cc12)Cc1cccnc1", "Potency": "inconclusive: 16.4 µM [inhibitor, partial curve]"}, {"molecule": "COc1ccc(OCCCC(=O)Nc2ccc(OC)c(S(=O)(=O)N3CCOCC3)c2)cc1", "activity change, negative = growth inhibition": "inactive: -20.7%"}, {"molecule": "CC(C)NC(=S)NNc1nc2ccccc2s1", "Potency": "active: 1.46 µM"}, {"molecule": "C1=C(c2sc3ccccc3c2-c2ccc(OCCN3CCOCC3)cc2)CCCC1", "Potency": "inconclusive: 20.6 µM [inhibitor, single point]"}, {"molecule": "C[C@@H]1CN(S(=O)C(C)(C)C)[C@H](CCO)/C1=C\\CCO", "note": "(some centres not stated)", "activity change, negative = growth inhibition": "inactive: 0.567%"}, {"molecule": "COc1ccc(Cn2c(=O)[nH]c3cc(C(=O)NC4CCN(Cc5ccccc5)CC4)ccc32)cc1", "Potency": "inconclusive: 29.1 µM [inhibitor, single point]"}, {"molecule": "C=C(C)[C@@H]1CC=C(CN2CCN(Cc3ccccc3)CC2)CC1", "Potency": "inconclusive: 20.6 µM [inhibitor, single point]"}]}]}
